Source: PubChem BioAssay (NCATS)
The inconclusive results got no clear call from the source; some entries with a clear call stand among them for comparison. For part of these data: Where the call is inconclusive, the potency comes from a doubtful curve fit. Calls of active or inactive are those of the source. Unless noted, the call rests on the fitted dose curve; in most records, active means well fitted curve in either direction with a large enough effect (not every such curve was filed as active); inconclusive means small, poorly fitted or top-dose-only effect, or another doubt; inactive means flat fitted curve, though single readings scatter.

Columns and labels:
[1] = AP1 Signaling Pathway (AID 357); details: ME-180 AP-1-bla reporter, EGF-induced, beta-lactamase ratio, 5 h; at 17.2 µM (top of the series) unless noted;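 further: ME-180 reporter cells stimulated with EGF at its EC50 level; top concentration of the series differs between compounds; on the % scale 0 is the no-effect control and ±100 the full control effect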
Summary of the method: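 Read-out was the 460nm/530nm emission ratio (excitation 405nm) after CCF4 loading for 2.5 hours at room temperature. Cells carried an AP-1-driven beta-lactamase reporter, were stimulated with EC50 EGF plus compound for 5 hours, and AC50 values came from titrations.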

[2] = NFAT Signaling Pathway (AID 444); details: Jurkat NFAT-bla M1, carbachol, beta-lactamase ratio, 5 h; at 17.2 µM (top of the series) unless noted;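 further: carbachol stimulus at about its EC50 of 1 µM final; on the % scale 0 is the no-effect control and ±100 the full control effect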
Summary of the method: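 Jurkat cells with NFAT-driven β-lactamase reporter and co-expressed M1 receptor, stimulated with carbachol (final 1 uM, ~EC50), compound titration, 5 h at 37 °C. CCF4 loaded 1 h at RT; 460/530 nm ratio gave %activity and AC50.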

[3] = Stat Signaling Pathway (AID 446); details: ME-180 (cervical carcinoma) SIE beta-lactamase reporter, IL-6 stimulated, 5 h; at 7.69 µM (top of the series) unless noted;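 further: ME-180 cervical cancer cells given 40 pM IL-6 alongside compound; SIE-controlled beta-lactamase reporter measured as 460/530 nm FRET emission ratio; top concentration of the series differs between compounds; on the % scale 0 is the no-effect control and ±100 the full control effect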
Summary of the method: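 Normalization used AC90 stimulation (300 pM IL-6) and AC90 inhibition (125 nM pan-JAK inhibitor at 40 pM IL-6). The underlying signal is SIE-driven beta-lactamase in ME-180 cells after 5 h IL-6 exposure with compound.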

[4] = target: Glucocorticoid receptor (Homo sapiens) (UniProt P04150); assay: GR-GFP Redistribution (AID 450;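 active means compounds whose dose series gives a full or clear partial fitted curve of increased nuclear translocation; inconclusive means weak partial curve or effect only at the top dose; inactive means no dose-dependent translocation response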; further: potency means the concentration at half of the fitted maximal effect); details: U2OS GR-GFP nuclear translocation, laser cytometry, 2 h
UniProt P04150, sequence (P04150 whole entry, looked up): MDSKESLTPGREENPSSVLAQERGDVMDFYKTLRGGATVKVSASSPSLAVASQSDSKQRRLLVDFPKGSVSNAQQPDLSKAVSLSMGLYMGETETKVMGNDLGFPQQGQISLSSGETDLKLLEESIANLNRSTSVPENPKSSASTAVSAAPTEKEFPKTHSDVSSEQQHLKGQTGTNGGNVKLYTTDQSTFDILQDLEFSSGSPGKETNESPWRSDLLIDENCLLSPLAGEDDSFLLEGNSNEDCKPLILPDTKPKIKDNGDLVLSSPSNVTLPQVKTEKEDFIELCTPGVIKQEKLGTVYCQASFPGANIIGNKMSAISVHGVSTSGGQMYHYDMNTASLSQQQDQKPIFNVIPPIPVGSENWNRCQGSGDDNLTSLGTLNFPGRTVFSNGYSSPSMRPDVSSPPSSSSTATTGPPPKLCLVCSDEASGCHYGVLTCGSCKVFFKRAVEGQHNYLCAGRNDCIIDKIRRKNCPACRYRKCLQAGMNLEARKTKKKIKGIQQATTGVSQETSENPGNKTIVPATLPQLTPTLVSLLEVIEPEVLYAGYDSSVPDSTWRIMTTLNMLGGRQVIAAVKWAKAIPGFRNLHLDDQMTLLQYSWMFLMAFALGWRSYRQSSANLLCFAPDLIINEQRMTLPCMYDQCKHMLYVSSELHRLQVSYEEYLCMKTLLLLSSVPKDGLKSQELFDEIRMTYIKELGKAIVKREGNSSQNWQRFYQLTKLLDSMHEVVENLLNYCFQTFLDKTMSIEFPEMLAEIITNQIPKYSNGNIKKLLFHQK

[5] = target: Ubiquitin carboxyl-terminal hydrolase 1 (Homo sapiens) (UniProt O94782); assay: Inhibitors of USP1/UAF1: Pilot qHTS (AID 504865; active means well fitted inhibition curve with a large enough effect; inconclusive means small, poorly fitted or top-dose-only effect;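 further: rhodamine fluorescence freed from ubiquitin-rhodamine substrate followed over time; potency means the concentration at half of the fitted maximal effect; nearly all actives have a fitted effect of over 35% in size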)
UniProt O94782, sequence (O94782 whole entry, looked up): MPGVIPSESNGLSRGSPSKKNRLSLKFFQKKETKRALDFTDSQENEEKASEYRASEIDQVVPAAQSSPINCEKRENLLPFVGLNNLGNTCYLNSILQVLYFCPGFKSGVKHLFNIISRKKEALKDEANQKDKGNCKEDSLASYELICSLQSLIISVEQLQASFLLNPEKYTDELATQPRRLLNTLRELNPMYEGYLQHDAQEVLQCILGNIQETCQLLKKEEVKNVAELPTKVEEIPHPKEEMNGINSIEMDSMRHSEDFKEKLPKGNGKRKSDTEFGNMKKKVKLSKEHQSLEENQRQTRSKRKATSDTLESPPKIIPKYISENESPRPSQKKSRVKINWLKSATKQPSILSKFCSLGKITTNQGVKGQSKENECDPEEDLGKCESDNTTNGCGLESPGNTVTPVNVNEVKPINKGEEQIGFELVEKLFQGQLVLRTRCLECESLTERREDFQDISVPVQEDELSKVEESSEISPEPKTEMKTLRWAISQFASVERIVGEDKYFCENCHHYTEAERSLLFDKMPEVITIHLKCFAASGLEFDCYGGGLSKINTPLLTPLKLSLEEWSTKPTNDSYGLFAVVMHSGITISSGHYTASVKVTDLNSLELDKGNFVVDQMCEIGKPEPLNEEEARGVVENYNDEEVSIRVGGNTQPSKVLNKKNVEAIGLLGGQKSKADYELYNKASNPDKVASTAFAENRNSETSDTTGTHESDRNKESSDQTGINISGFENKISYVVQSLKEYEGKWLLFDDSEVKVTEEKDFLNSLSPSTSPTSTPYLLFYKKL
Summary of the method: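 Deubiquitinase activity followed as kinetic rhodamine fluorescence release from 150 nM Ub-Rho. 1 nM USP1/UAF1 with compound, after 15 min room-temperature preincubation, in HEPES pH 7.8 buffer containing TCEP, EDTA, BSA and Tween-20.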
Tags describe the fitted curve by direction and shape.

SMILES	activity change, negative = inhibition [1]	activity change, negative = inhibition [2]	activity, negative = inhibition [3]	Potency [4]	Potency [5]
N=c1c2c(-c3ccccc3)c(-c3ccccc3)n(Cc3ccccc3)c2ncn1CCCn1ccnc1	inconclusive: 55.6% [activator]	inconclusive: -96.7% [inhibitor]			
Cc1oc2cc(O)ccc2c(=O)c1-c1cnn(-c2ccccc2)c1	inconclusive: -43.8% [inhibitor]	inconclusive: 48.3% [activator]	inconclusive: -48% [inhibitor] [at 17.2 µM]		
CC(NC(=O)CSc1nc2c(cc1C#N)CN(C)CC2)c1ccccc1 (centres undefined)	inconclusive: -35.4% [inhibitor]	inconclusive: -32.6% [inhibitor]			
N#Cc1c(N)nc(SCc2ccccn2)c(C#N)c1-c1cccs1	inconclusive: -55.3% [inhibitor]	inconclusive: -41.9% [inhibitor]	inconclusive: -32.5% [inhibitor] [at 17.2 µM]		
O=C(NCCc1ccccc1)/C(=N\O)c1ccccc1	inactive: -2.29%	inactive: 11.6%	inactive: -3.56% [at 17.2 µM]		
COCCn1c(=O)cnc2cnc(Oc3ccc(OC)cc3)nc21	inactive: -2.08% [at 7.69 µM]	inactive: -2.59% [at 7.69 µM]			
NCCSCCC(=O)O	inconclusive: 173% [activator] [at 7.69 µM]	inactive: 11.4% [at 7.69 µM]			
COc1ccc(C(=O)N2CCC3(CCCN(Cc4ccccc4)C3)CC2)cc1	inconclusive: 53.4% [activator] [at 7.69 µM]	inconclusive: -56.3% [inhibitor] [at 7.69 µM]			
COc1cccc(C(=O)c2sc(NC(C)C)nc2N)c1	active: -116%	inconclusive: -126% [inhibitor]	active: -103% [at 17.2 µM]		
CC(=O)N1CCC2(CCCN(C(=O)Nc3cccc(C#N)c3)C2)CC1	inactive: -1.46% [at 7.69 µM]	inactive: -5.5% [at 7.69 µM]	inactive: 4.81%		
c1cncc(CNc2ncnc3ccc(-c4cccnc4)cc23)c1	inconclusive: -37% [inhibitor] [at 7.69 µM]	inconclusive: 40.7% [activator] [at 7.69 µM]	inconclusive: -56% [inhibitor]	inactive: > 46 µM	inconclusive: 79.4 µM [inhibitor, partial curve]
CC(C)N1CC=C2C(C#N)=C(N)C(C#N)(C#N)C(c3ccccc3)C2C1 (centres undefined)	inactive: 26.3%	inconclusive: 59.3% [activator]	inconclusive: 52.6% [activator] [at 17.2 µM]		
Cc1ccc2[nH]c3c(N4CCN(Cc5ccccc5)CC4)ncnc3c2c1	inconclusive: -54% [inhibitor]	inconclusive: -116% [inhibitor]	inconclusive: -52.5% [inhibitor] [at 17.2 µM]		
O=C1c2ccccc2C(O)(O)[C@@]1(O)[C@]1(O)C(=O)c2ccccc2C1(O)O	inconclusive: 35.1% [activator] [at 7.69 µM]	inactive: -0.902% [at 7.69 µM]	inconclusive: -46.7% [inhibitor]		
COc1ccc(Nc2cc(C)nc(-n3nc(C)cc3C)n2)cc1	inconclusive: 43.5% [activator]	inconclusive: -48.6% [inhibitor]	inactive: -13% [at 17.2 µM]		
COc1cccc(-c2nnc3sc(C4CCCCC4)nn23)c1	inconclusive: -106% [inhibitor]	inconclusive: -104% [inhibitor]	active: -91.1% [at 17.2 µM]		
Oc1c(Cl)cc(Cl)cc1CNc1ccc(Br)cn1	inconclusive: -40.1% [inhibitor]	inconclusive: -114% [inhibitor]	inconclusive: -34.2% [inhibitor] [at 17.2 µM]		
N#CC1=C(N)NC(SCc2ccc(Cl)cc2)=C(C#N)C12CCCCC2	inconclusive: -72.4% [inhibitor]	inconclusive: -118% [inhibitor]	inconclusive: -77.7% [inhibitor] [at 17.2 µM]		
COc1cccc(N2CCN(c3ncnc4c3[nH]c3ccc(F)cc34)CC2C)c1 (centres undefined)	active: -121%	active: -137%	active: -104% [at 17.2 µM]		
COC(=O)c1ccc(C2/C(=C(\O)c3ccc(OC)c(C)c3)C(=O)C(=O)N2c2cc(C)on2)cc1 (centres undefined)	inconclusive: -31% [inhibitor]	inconclusive: -60.2% [inhibitor]	inconclusive: -33.4% [inhibitor] [at 17.2 µM]		
Cc1oc2cc(O)cc(C)c2c(=O)c1-c1cnn(-c2ccccc2)c1	inconclusive: -43% [inhibitor]	inconclusive: -59.6% [inhibitor]	inconclusive: -55% [inhibitor] [at 17.2 µM]		
CCCc1[nH]nc2c1C(c1c(C)nn(-c3ccccc3)c1Cl)C(C#N)=C(N)O2 (centres undefined)	inconclusive: -38.1% [inhibitor]	inactive: 14.9%	inactive: -29.6% [at 17.2 µM]		
Cc1ccc2nc(C(F)(F)F)c(C#N)c(N)c2c1	inconclusive: -116% [inhibitor]	inconclusive: -124% [inhibitor]	active: -100% [at 17.2 µM]		
c1ccc2c(c1)CCN(c1ncnc3c1[nH]c1ccccc13)C2	inconclusive: -46.7% [inhibitor]	inconclusive: -119% [inhibitor]	inconclusive: -74.1% [inhibitor] [at 17.2 µM]		
